This is an account of results in PMC10726135.

This is one part of the list. At the low end of the ranking the order means little. Measured with an extract: partners may take part in the binding.

For this experiment, the target named is T1, HNF4alpha2 (COS-7 nuclear extract) (UniProt P41235).
T1 sequence: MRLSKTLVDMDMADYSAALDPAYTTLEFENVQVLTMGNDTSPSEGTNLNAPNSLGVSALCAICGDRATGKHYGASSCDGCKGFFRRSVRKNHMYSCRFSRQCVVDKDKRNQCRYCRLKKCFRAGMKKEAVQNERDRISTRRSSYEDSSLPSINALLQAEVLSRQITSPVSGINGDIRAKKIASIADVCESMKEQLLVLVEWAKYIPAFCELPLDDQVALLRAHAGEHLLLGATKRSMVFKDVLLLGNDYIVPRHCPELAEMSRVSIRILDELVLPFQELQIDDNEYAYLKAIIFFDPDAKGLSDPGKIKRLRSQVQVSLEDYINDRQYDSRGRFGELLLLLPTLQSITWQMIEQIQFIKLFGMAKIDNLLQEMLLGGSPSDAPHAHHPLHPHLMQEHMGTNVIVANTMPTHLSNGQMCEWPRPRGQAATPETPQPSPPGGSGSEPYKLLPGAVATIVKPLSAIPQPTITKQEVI
The experiment can be described thus: protein-binding microarray. As to conditions: COS-7 nuclear extract on double-stranded Agilent 4x180k PBM; binding buffer, salt, pH and temperature not given; high values mean tight binding; double strand, one strand shown; sequences stand for … in …GCCTAGGGAGATTAGAGTATCGGTCGA
For the sequence TCAGACCTGACCTTTGGATTCCCAGATGGA, the binding signal (log2 normalized intensity) was 5.09.

With TTGCTTAAACCTAGCTACTAGCCATTTCGG, the binding signal (log2 normalized intensity) is -1.17.

For the sequence AGTTTTGTTATCTCTGCTTGCAATTTTTGT, the binding signal (log2 normalized intensity) came out at 1.55.

For GGCCTGATAGATTTTGCATTGCTCACATAG, the binding signal (log2 normalized intensity) was -0.988.

For GGAAGGTATTGTCATTATTCCAGCTTTACA, the binding signal (log2 normalized intensity) is 0.00765.

On to ATGTGGTATTAACATGTAAATATGACCTTT, for which the binding signal (log2 normalized intensity) was 7.12.

As for GCCTGCAGGTGAATGGAAACAAGAGAGTCT, the binding signal (log2 normalized intensity) was -1.09.

As for CGCAGTCGCCTGCAAGACAATACCTTCACT, the binding signal (log2 normalized intensity) is -0.992.

On to CCATCCTTGTTTTGGGGGTTGGTATTACAA, for which the binding signal (log2 normalized intensity) was found to be 1.52.

On to GGGATGGACTTTGGCCCTCAGCCCAATGTG, for which the binding signal (log2 normalized intensity) worked out at 6.2.

Regarding TACGTTTGTGATACACCTTGCCTGGCTACC, the binding signal (log2 normalized intensity) is 0.413.

On to GAACAGGTCAAAGGTCAGTTTCTTTAAGAC, for which the binding signal (log2 normalized intensity) was 7.04.

Regarding TGTGACAGAAGTCATGTCTCATTGCCCCTT, the binding signal (log2 normalized intensity) was determined as 4.41.

Turning to GAGTGACCTCTGGTCATTCAATGTTTGGGA, the binding signal (log2 normalized intensity) worked out at 2.12.

In the case of TTGTCCTCTGATTCTCCAGTCCGAAGGTCC, the binding signal (log2 normalized intensity) came to 2.74.

As for AGCTGCTTCAGGAGCCCCCTGGGGGAGGTT, the binding signal (log2 normalized intensity) came to 0.491.

Turning to AGTCCAAATTCCTAGCCCTCTTTCAAAGAC, the binding signal (log2 normalized intensity) was -1.13.

For GAAGGCCTCTGATGATTCTAAAGGCACAAT, the binding signal (log2 normalized intensity) was -0.98.

Turning to AAAGGCACTTTGATAACTGGGTAAATGTAC, the binding signal (log2 normalized intensity) came out at 1.4.

For the sequence CGAGCACGTCGAGCAGGCCCCGTCCCCGCC, the binding signal (log2 normalized intensity) stood at 4.19.

With GAGACCTCTGCAGGAGGACTGGATCAATGG, the binding signal (log2 normalized intensity) is -0.859.

Take TGCACATGCCCCTCCCAGGGACACATGCCC: the binding signal (log2 normalized intensity) came to 3.79.

TCTTGAAATCCCAAGCAGTGATATTCTCTC: the binding signal (log2 normalized intensity) is -1.09.

Regarding CTGAGCCCGCTCCACTCCGGGCGATCCGGG, the binding signal (log2 normalized intensity) was -1.19.

As for AGAATGGAATTCCAGAGAGACTCACTGCAA, the binding signal (log2 normalized intensity) is -1.15.

Take ACCTTCTCCCACTTCCCTGCCTTTGTATAA: the binding signal (log2 normalized intensity) was 2.1.

For the sequence AGAACAAACAAATTTAGCAAGACTGCAAAA, the binding signal (log2 normalized intensity) was -1.09.

Take GGGGCTTTTGTTTAGGAAGAGATCAAAGTT: the binding signal (log2 normalized intensity) was determined as 1.35.

As for AAGCAGTAGACTAAAACCCATATCTGACTG, the binding signal (log2 normalized intensity) is -1.06.

Take CTTCAGCCAGATAGCCACTGGGGTCATGGA: the binding signal (log2 normalized intensity) came out at 2.43.

Take AGGCTGACCCGTGAATCCTTAAGATTCCTG: the binding signal (log2 normalized intensity) is -1.1.

With CTCTGTTGCATGGTTGACATACTTCTGAGT, the binding signal (log2 normalized intensity) turned out to be 1.47.

Regarding GCATGAACCTTTGCTCCCTGGGAACCCCTC, the binding signal (log2 normalized intensity) came to 2.72.

TCCATTTCCCACATTGCTCTCCCATAAGAA: the binding signal (log2 normalized intensity) was 0.624.

For TGGAAATTCAGAACTTTGACCACCTACTGT, the binding signal (log2 normalized intensity) stood at 1.79.

In the case of TACAATTCCAGCAAGGATGGGGGCAAAGGT, the binding signal (log2 normalized intensity) turned out to be 2.91.

Take CTGGCCTCGGGGAGCTGTGGGCCTCACACC: the binding signal (log2 normalized intensity) is -1.13.

Consider GAATGAGTTTCCAGAATTGCTTTACGAAGT, for which the binding signal (log2 normalized intensity) was -1.08.

CTGAAAGCTTCAAAGGACAGGCTGACTATC: the binding signal (log2 normalized intensity) is -1.13.

Take AAACGGGTTTTACCCTGGGAATGGAGAGAG: the binding signal (log2 normalized intensity) was -0.957.

Consider GAAGATAAGCAGATCTTTAGAGACAGAAAA, for which the binding signal (log2 normalized intensity) is -1.16.

Regarding CCTTTGGTCTAAACCTACTTAGATCAAGAT, the binding signal (log2 normalized intensity) was -0.394.

Take CTGTAGTAAGGGAGTGTGGGGTGGTGTCAG: the binding signal (log2 normalized intensity) was found to be 1.57.

Consider ACCAGAGCCGTCTGGTAAATTTCTAACACT, for which the binding signal (log2 normalized intensity) is -1.16.

Take GTTGCAGTGAGCTAAGATTGGACTCTGCAC: the binding signal (log2 normalized intensity) came out at 6.06.

In the case of TTTGGACTTTGGACTTGGGACTTTCGAGTT, the binding signal (log2 normalized intensity) was 7.8.

On to TAGTAAAGCTCATGAAGCTTCCCCTTTAAC, for which the binding signal (log2 normalized intensity) was -1.05.

Take GGGCACCTCTGAAAGCACTTGTAGGCCTGT: the binding signal (log2 normalized intensity) was -1.11.

Regarding GGTTAAAAGTTCTGCTGAGTATCCAAAGGT, the binding signal (log2 normalized intensity) was determined as 1.45.

Turning to CAGAAAGTTAGGTTCTGGCACCTGAAGCTG, the binding signal (log2 normalized intensity) is -1.01.

As to AAAGAGGCTACCAGACCTTGGCCTGCTCCT, the binding signal (log2 normalized intensity) was -1.21.

With ACTGCTCCAGTGGACATTGGCCCTTTGACC, the binding signal (log2 normalized intensity) turned out to be 5.99.

As to TTGGTCTCATGGGCCTAAACATTCCCCTTT, the binding signal (log2 normalized intensity) was 2.13.

On to TAATCTGATCGCCCTCCCCCAGAGAGAACA, for which the binding signal (log2 normalized intensity) was 4.81.

For GTGCAGCTGCTGAAACATTCAACTGACACT, the binding signal (log2 normalized intensity) is -1.14.

Regarding AGTCCACAGTCCAGTGACTATCTGCTACTT, the binding signal (log2 normalized intensity) was -1.1.

Consider GGCTGGAGCAGGCCATGTGCAGAGGAGGGG, for which the binding signal (log2 normalized intensity) was -1.19.

Turning to AAAGCAGTGAGTGAAACATCCCACTCAAAG, the binding signal (log2 normalized intensity) was -1.04.

As to GGGTTATGGAGAGTGGAAGACTGCACCAAA, the binding signal (log2 normalized intensity) was -1.13.

In the case of ACACAAACTATGACCTTTGAAACTTACATT, the binding signal (log2 normalized intensity) was determined as 5.64.

Regarding GTCCAGAGTTTAAATGACCTCTGCCCTTCC, the binding signal (log2 normalized intensity) worked out at 6.56.

With TAAGAAATGAATGTCACTTTCTGACTGGCC, the binding signal (log2 normalized intensity) was -0.263.

Regarding ATCTACCATTAGTCTCCAATATATTTGCCT, the binding signal (log2 normalized intensity) was -0.905.

On to TACAGGCAAGAGAATCAGAGAGATACTGAA, for which the binding signal (log2 normalized intensity) was -0.975.

As for GGGGGCTGTTTATGGGTTAACAGAATGAAC, the binding signal (log2 normalized intensity) was 1.11.

In the case of TCAGATTGCCTAAAGGGGATTTTCTCAGCT, the binding signal (log2 normalized intensity) was -1.25.

For the sequence GAAACATTTTACAACCTACTCTTTCTCTGA, the binding signal (log2 normalized intensity) was -1.16.

Take TGTTCCACCCAGGGTGGCAGGCTCTGCAAA: the binding signal (log2 normalized intensity) is -1.08.

With GGGGCAAAGTTTATGTGTGAGCCTATAATT, the binding signal (log2 normalized intensity) came out at 1.17.

On to GAAGCAAGTGTTTAACTCTTTATCTTTCTC, for which the binding signal (log2 normalized intensity) is 0.752.

With ACCATAAGAGGCTCTAGATCTCAAAGTCCA, the binding signal (log2 normalized intensity) came out at 3.9.

As to CTGTGCTTTCTAAAGTATGTGGTGGGTGTG, the binding signal (log2 normalized intensity) was found to be 2.5.

GCCACATTCCCCGACTCCTGGGTGTGAGAT: the binding signal (log2 normalized intensity) came out at 0.517.
